Measurements from PMC6758638.
Like-named read-outs stand apart in the source and are kept apart here. These are yes or no findings as the source states them, for the method shown. In cells and extracts the contact can be indirect. Some entries that bind do so weakly or less than the wild type. For some of these results: Tags and fused reporters may be left off the sequences shown.

Protein sequences, listed by entry. Tags and fused reporters are not part of them.
UniProt P18272: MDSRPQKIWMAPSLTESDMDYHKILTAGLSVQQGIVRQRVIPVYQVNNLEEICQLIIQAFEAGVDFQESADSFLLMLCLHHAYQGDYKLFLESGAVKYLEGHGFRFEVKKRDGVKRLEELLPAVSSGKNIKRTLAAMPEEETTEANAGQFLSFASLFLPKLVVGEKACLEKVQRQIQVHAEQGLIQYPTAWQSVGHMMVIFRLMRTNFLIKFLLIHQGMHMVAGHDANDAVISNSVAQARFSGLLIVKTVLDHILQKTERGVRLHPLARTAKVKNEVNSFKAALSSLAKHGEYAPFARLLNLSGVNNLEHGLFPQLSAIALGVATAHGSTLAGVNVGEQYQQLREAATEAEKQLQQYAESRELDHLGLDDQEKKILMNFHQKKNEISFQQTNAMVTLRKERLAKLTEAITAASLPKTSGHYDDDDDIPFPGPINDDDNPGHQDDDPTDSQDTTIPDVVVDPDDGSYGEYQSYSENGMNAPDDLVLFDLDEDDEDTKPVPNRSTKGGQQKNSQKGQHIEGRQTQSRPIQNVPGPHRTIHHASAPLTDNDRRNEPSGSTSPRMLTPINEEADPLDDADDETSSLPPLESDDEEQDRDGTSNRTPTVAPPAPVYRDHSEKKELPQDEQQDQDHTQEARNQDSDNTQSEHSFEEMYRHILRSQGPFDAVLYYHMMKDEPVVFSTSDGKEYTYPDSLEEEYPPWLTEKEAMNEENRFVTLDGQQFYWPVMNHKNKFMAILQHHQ
UniProt Q05323: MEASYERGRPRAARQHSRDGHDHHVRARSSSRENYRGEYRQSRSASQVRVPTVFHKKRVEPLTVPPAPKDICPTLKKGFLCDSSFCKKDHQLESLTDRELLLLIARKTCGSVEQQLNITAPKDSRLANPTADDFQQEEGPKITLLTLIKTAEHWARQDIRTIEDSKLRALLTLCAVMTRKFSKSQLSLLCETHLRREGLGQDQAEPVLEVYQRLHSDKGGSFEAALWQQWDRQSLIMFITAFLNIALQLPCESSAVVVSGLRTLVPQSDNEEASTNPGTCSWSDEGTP
UniProt Q8JPY1: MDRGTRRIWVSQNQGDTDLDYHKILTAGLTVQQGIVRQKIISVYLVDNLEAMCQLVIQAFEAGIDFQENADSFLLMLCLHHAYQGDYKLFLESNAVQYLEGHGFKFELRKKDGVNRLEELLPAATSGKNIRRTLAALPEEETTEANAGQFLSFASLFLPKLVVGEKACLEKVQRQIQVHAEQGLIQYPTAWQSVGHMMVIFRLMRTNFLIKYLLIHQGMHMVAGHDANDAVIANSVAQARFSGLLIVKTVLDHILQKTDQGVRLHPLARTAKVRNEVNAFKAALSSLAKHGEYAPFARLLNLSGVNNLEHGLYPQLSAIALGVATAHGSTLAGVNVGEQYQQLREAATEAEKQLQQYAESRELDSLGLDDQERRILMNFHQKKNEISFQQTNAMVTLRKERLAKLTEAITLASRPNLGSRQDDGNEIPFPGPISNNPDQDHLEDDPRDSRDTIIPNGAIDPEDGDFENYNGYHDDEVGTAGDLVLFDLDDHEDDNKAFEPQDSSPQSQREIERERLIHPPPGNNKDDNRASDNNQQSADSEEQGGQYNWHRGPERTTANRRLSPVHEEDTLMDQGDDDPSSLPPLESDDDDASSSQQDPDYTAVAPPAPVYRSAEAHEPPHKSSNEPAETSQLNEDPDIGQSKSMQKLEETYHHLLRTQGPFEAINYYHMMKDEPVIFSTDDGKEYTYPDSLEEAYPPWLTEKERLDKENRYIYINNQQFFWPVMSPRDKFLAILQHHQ
UniProt Q05127: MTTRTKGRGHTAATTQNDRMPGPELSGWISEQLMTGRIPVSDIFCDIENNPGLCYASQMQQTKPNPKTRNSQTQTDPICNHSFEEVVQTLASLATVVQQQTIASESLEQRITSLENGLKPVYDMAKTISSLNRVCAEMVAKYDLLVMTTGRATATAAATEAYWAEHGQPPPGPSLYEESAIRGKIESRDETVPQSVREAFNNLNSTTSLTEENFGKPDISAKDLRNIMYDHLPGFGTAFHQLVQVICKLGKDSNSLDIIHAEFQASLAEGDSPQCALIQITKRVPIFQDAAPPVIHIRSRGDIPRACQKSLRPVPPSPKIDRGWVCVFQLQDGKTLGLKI
UniProt Q15172: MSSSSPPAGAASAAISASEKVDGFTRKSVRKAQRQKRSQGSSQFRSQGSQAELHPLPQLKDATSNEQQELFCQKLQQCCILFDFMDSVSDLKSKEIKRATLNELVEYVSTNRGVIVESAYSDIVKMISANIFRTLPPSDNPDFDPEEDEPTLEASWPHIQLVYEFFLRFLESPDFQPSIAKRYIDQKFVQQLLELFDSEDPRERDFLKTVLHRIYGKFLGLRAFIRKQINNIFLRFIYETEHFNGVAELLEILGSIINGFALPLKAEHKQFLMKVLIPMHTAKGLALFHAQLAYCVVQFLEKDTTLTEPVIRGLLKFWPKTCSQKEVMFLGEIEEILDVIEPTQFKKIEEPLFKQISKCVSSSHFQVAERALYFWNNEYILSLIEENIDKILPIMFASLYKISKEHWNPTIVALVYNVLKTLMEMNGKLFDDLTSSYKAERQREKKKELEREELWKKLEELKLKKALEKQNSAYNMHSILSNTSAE

Key:
Assay in all cases: co-IP
[1] = molecular target: T1, N-terminal HA-tagged wild-type SMYD3 (human) (UniProt Q9H7B4)
T1 sequence: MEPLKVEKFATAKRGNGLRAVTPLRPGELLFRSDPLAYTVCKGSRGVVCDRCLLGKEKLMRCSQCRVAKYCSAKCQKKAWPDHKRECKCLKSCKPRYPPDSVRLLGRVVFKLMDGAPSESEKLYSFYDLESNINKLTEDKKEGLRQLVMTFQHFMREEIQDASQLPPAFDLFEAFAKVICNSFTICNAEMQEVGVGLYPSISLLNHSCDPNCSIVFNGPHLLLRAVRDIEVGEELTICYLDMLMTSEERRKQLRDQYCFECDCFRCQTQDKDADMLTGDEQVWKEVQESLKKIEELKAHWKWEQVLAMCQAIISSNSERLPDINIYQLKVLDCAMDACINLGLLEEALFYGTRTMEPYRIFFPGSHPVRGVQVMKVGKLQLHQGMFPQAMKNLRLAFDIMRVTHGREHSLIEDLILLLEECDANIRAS

[2] = molecular target: C-terminal HA-tagged Zaire ebolavirus (strain Mayinga) nucleoprotein (Zaire ebolavirus (strain Mayinga)) (UniProt P18272)
[3] = molecular target: C-terminal HA-tagged Zaire ebolavirus (strain Mayinga) nucleoprotein (Zaire ebolavirus (strain Mayinga)) (UniProt P18272); remark: listed apart in the source
[4] = molecular target: C-terminal HA-tagged Zaire ebolavirus VP30 (Zaire ebolavirus (strain Mayinga)) (UniProt Q05323)
[5] = molecular target: wild-type Reston virus NP (Reston ebolavirus (strain Pennsylvania)) (UniProt Q8JPY1)
[6] = molecular target: HA-tagged Zaire ebolavirus VP35 (Zaire ebolavirus (strain Mayinga)) (UniProt Q05127)

## C-terminal FLAG-tagged Zaire ebolavirus (strain Mayinga) nucleoprotein (from UniProt P18272 1-739)
[1]
  binding: binds

## C-terminal FLAG-tagged Zaire ebolavirus VP30 (from UniProt Q05323 1-288)
[2]
  binding: binds

## FLAG-tagged B56α (from UniProt Q15172 1-486)
[2]
  binding: binds

B1: SET and MYND domain-containing protein 3, endogenous (protein, UniProt Q9H7B4 1-428)
chain: MEPLKVEKFATAKRGNGLRAVTPLRPGELLFRSDPLAYTVCKGSRGVVCDRCLLGKEKLMRCSQCRVAKYCSAKCQKKAWPDHKRECKCLKSCKPRYPPDSVRLLGRVVFKLMDGAPSESEKLYSFYDLESNINKLTEDKKEGLRQLVMTFQHFMREEIQDASQLPPAFDLFEAFAKVICNSFTICNAEMQEVGVGLYPSISLLNHSCDPNCSIVFNGPHLLLRAVRDIEVGEELTICYLDMLMTSEERRKQLRDQYCFECDCFRCQTQDKDADMLTGDEQVWKEVQESLKKIEELKAHWKWEQVLAMCQAIISSNSERLPDINIYQLKVLDCAMDACINLGLLEEALFYGTRTMEPYRIFFPGSHPVRGVQVMKVGKLQLHQGMFPQAMKNLRLAFDIMRVTHGREHSLIEDLILLLEECDANIRAS
[3]
  binding: binds
[4]
  binding: no binding
[5]
  binding: binds
[6]
  binding: no binding
